How the values were obtained:
Experiment in all cases: fluorescence polarisation; steady-state fluorescence anisotropy; 100 nM AF-594-labeled DnaJB1-G194C titrated with fibrils (concentration as α-syn monomers); 3.5 h at 25 °C; 50 mM HEPES-KOH (pH 7.5), 50 mM KCl, 5 mM MgCl2, 2 mM DTT; equilibrium binding model
Conditions in all cases: both partners purified
[1] = molecular target: α-synuclein fibrillar polymorph XG (human, UniProt P37840)
[2] = molecular target: α-synuclein fibrillar polymorph F91 (human, UniProt P37840)
[3] = molecular target: T1, C-terminally truncated α-synuclein (aa 1–110) fibrillar polymorph F110 (human, UniProt P37840 fragment)
T1 construct: α-synuclein, human, residues 1-110 (C-terminal truncation), as amyloid fibrils; Amyloid fibril (many copies of the chain); Makky et al, 2016; also called F110 fibrils; C-terminal truncated mutant F110; source: recombinant; aggregated in 50 mM Tris-HCl 150 mM KCl, pH 7.5, 600 rpm

[4] = molecular target: α-synuclein fibrillar polymorph F65 (human, UniProt P37840)
[5] = molecular target: α-synuclein fibrillar polymorph Ri (ribbons) (human, UniProt P37840)
[6] = molecular target: α-synuclein fibrillar polymorph FM (human, UniProt P37840)

binding result [1]: binds
binding result [2]: binds
binding result [3]: binds
binding result [4]: binds
binding result [5]: binds
binding result [6]: binds
B1: AF-594-labeled DnaJB1 mutant G194C (natural protein, human)
chain: MGKDYYQTLGLARGASDEEIKRAYRRQALRYHPDKNKEPGAEEKFKEIAEAYDVLSDPRKREIFDRYGEEGLKGSGPSGGSGGGANGTSFSYTFHGDPHAMFAEFFGGRNPFDTFFGQRNGEEGMDIDDPFSGFPMGMGGFTNVNFGRSRSAQEPARKKQ[skipping about 150 residues]PERIPQTSRTVLEQVLPI
modifications: Alexa Fluor 594 C5 maleimide on the free reactive cysteine (G194C)
notes: DnaJB1, J-domain protein co-chaperone of human Hsc70, with G194C for labelling; Labelling efficiency 90% or higher; also called DnaJB[…]C
